Whole data set: some 18,000 sequences, median “TetR repression strength (sort-seq, GFP reporter)” near 0.23, cut for the highest 2% near 0.68. The list shows a part of the results.

This is an account of results in a collection of fitness landscapes (doi:10.1038/s41467-024-54723-y).

Sequence of UniProt P04483 (P04483 whole entry): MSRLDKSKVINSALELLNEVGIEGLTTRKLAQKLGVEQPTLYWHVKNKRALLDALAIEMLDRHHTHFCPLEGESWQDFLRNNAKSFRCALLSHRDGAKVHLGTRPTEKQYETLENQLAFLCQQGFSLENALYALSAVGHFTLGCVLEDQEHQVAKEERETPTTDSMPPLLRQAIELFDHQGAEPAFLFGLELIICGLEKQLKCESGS

For this experiment, the target named is TetR (class B, Tn10) (UniProt P04483). Nature of the experiment: TetR repression strength (sort-seq, GFP reporter) (relative to tetO2 = 1); higher = stronger repression. The following applies: E. coli. The method, boiled down:
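In LB with 50 µg/mL chloramphenicol, E. coli SIG10-MAX holding a low-copy library with eight randomized operator positions between a constitutive promoter and sfGFP, plus constitutive TetR, grew for 5 h at 37 °C. FACS then sorted 10^6 cells into 13 fluorescence bins for Illumina sequencing of each bin. Repression strength equals the top bin index plus one less the read-weighted mean bin, normalized to the unaltered operator. Values from three independent transformations were averaged when reads were ≥30 in every replicate and the CV was ≤0.5.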
In the case of TCCCCAAGAGTCCTCGAGA, the TetR repression strength is 0.409.
Then TCCCCGTGAGTTGCCGAGA, with 0.221; and TCCCGCGCAGTGGGGGAGA, with 0.21; and TCCCCGCCAGTAGGCGAGA, with 0.457.
The figure for TCCCGTACAGTAGGTGAGA is 0.131; for TCCCTGAAAGTCTACGAGA it is 0.815; for TCCCCTCCAGTTGCAGAGA it is 0.137.
Sequence TCCCGACCAGTGTTTGAGA came in with a TetR repression strength of 0.066.
With TCCCCGGAAGTTTGTGAGA, the TetR repression strength came out at 0.173.
For TCCCACAGAGTGTCGGAGA, the TetR repression strength amounted to 0.0864.
Sequence TCCCACCGAGTATTCGAGA came in with a TetR repression strength of 0.117.
TCCCTTAGAGTGAGGGAGA yielded a TetR repression strength of 0.0732.
Then TCCCAGTCAGTGGCGGAGA, with 0.205; and TCCCGGGCAGTCATAGAGA, with 0.281; and TCCCATGGAGTGCTAGAGA, with 0.268.
TCCCGGCTAGTGGTCGAGA: the TetR repression strength came to 0.152.
As for TCCCCGGAAGTGATAGAGA, the TetR repression strength was 0.33.
The figure for TCCCTACGAGTGGGTGAGA is 0.289; for TCCCTTGGAGTGTAGGAGA it is 0.242; for TCCCGTCTAGTAGGGGAGA it is 0.159.
The figure for TCCCGAAGAGTTGCAGAGA is 0.295.
The figure for TCCCGAGGAGTAGGTGAGA is 0.309.
In turn, TCCCAGCCAGTCAAGGAGA showed a TetR repression strength of 0.404.
The figure for TCCCAGGGAGTTGCCGAGA is 0.137; for TCCCATGGAGTCGTGGAGA it is 0.155.
TCCCATAGAGTCAATGAGA returned a TetR repression strength of 0.255.
The figure for TCCCTATGAGTACAAGAGA is 0.376.
With TCCCGTTAAGTGTACGAGA, the TetR repression strength was 0.311.
In turn, TCCCGCCGAGTCGTCGAGA gave a TetR repression strength of 1.24.
Take TCCCTCGTAGTGCTAGAGA: the TetR repression strength worked out at 0.275.
Then TCCCGACGAGTACGTGAGA, with 0.209; and TCCCGTCCAGTGTTAGAGA, with 0.42.
In turn, TCCCGACAAGTCACAGAGA had a TetR repression strength of 0.292.
Then TCCCCTAAAGTGAGTGAGA, with 0.502; and TCCCGGAAAGTGACAGAGA, with 0.223; and TCCCTATGAGTTATGGAGA, with 0.505.
TCCCATGTAGTAGGAGAGA came in with a TetR repression strength of 0.0472.
As to TCCCGTGTAGTTTGCGAGA, the TetR repression strength came to 0.234.
The sequence TCCCCAGGAGTCTCCGAGA displayed a TetR repression strength of 0.155.
The figure for TCCCCGCCAGTGTATGAGA is 0.211; for TCCCAGCGAGTCGGCGAGA it is 0.385; for TCCCGAGTAGTTTAGGAGA it is 0.264.
The figure for TCCCCCCGAGTCGGGGAGA is 0.591.
The figure for TCCCGTGTAGTCTCTGAGA is 0.03.
TCCCCGAAAGTACGGGAGA yielded a TetR repression strength of 0.181.
The figure for TCCCCCTCAGTGGTTGAGA is 0.152; for TCCCTGAGAGTTTATGAGA it is 0.587.
Then TCCCGTACAGTTCGGGAGA, with 0.15; and TCCCTGGCAGTAACTGAGA, with 0.231; and TCCCCTTGAGTCACGGAGA, with 0.362.
The figure for TCCCTGGGAGTACATGAGA is 0.12; for TCCCTGGTAGTAGAGGAGA it is 0.0794.
With TCCCGTCAAGTTACGGAGA, the TetR repression strength worked out at 0.529.
The figure for TCCCGCAAAGTGGACGAGA is 0.236; for TCCCAACTAGTGGGGGAGA it is 0.212.
The figure for TCCCCCACAGTAAAGGAGA is 0.164.
In the case of TCCCGGATAGTGTTAGAGA, the TetR repression strength worked out at 0.275.
With TCCCAATGAGTATCTGAGA, the TetR repression strength amounted to 0.442.
Then TCCCTTCTAGTTCGTGAGA, with 0.415; and TCCCAGCAAGTGGGTGAGA, with 0.699.
Then TCCCACTCAGTGCCAGAGA, with 0.287; and TCCCGGGTAGTATGAGAGA, with 0.516.
Then TCCCTATTAGTTACGGAGA, with 0.239.
TCCCGATGAGTTGGTGAGA registered a TetR repression strength of 0.359.
The figure for TCCCCAGGAGTTCGAGAGA is 0.271.
Then TCCCCTAAAGTACGGGAGA, with 0.269; and TCCCGTGGAGTGGGCGAGA, with 0.141.
The sequence TCCCGAATAGTACGCGAGA gave a TetR repression strength of 0.153.
With TCCCCGTCAGTTTTCGAGA, the TetR repression strength stood at 0.258.
Then TCCCATACAGTGTCAGAGA, with 0.315; and TCCCTAAGAGTTGCTGAGA, with 0.261.
Then TCCCGGTAAGTGGCCGAGA, with 0.21; and TCCCAGCGAGTTTAAGAGA, with 0.014; and TCCCTCAGAGTGCCTGAGA, with 0.211.
TCCCCTCGAGTGCCGGAGA came in with a TetR repression strength of 0.442.
TCCCGTGTAGTGGTGGAGA had a TetR repression strength of 0.185.
The figure for TCCCGTTTAGTCGCGGAGA is 0.215; for TCCCCGCGAGTTGCGGAGA it is 0.247.
The figure for TCCCTCTAAGTTGTCGAGA is 0.486.
TCCCGCGGAGTCGTCGAGA showed a TetR repression strength of 0.179.
Sequence TCCCGGTAAGTGGTGGAGA gave a TetR repression strength of 0.269.
Then TCCCGGTCAGTTGCTGAGA, with 0.384.
The figure for TCCCGAGTAGTAGTAGAGA is 0.03.
Sequence TCCCGTAGAGTGAAGGAGA registered a TetR repression strength of 0.238.
The figure for TCCCACGGAGTGAGAGAGA is 0.435.
The figure for TCCCTCCGAGTGCTCGAGA is 0.311; for TCCCCACGAGTAGTGGAGA it is 0.217.
Then TCCCGGAGAGTTACGGAGA, with 0.294.
On to TCCCTTGGAGTCGGGGAGA, for which the TetR repression strength turned out to be 0.319.
With TCCCTGCAAGTTTATGAGA, the TetR repression strength amounted to 0.256.
Take TCCCTTCAAGTATTTGAGA: the TetR repression strength came to 0.373.
On to TCCCATTAAGTAGTAGAGA, for which the TetR repression strength is 0.223.
The figure for TCCCTATCAGTGAGTGAGA is 0.79; for TCCCGGCTAGTACACGAGA it is 0.262; for TCCCCATGAGTGATTGAGA it is 0.517.
In turn, TCCCCGCTAGTGGCAGAGA showed a TetR repression strength of 0.282.
On to TCCCAAGGAGTGGGCGAGA, for which the TetR repression strength amounted to 0.231.
The figure for TCCCGGTTAGTCTCAGAGA is 0.29; for TCCCGGTCAGTTCTTGAGA it is 0.44.
TCCCGATGAGTTGCCGAGA showed a TetR repression strength of 0.284.
TCCCGTGGAGTGGGGGAGA gave a TetR repression strength of 0.253.
Then TCCCGGACAGTGACTGAGA, with 0.216.
